Laboratory results as given in PubChem BioAssay AID743279 (National Center for Advancing Translational Sciences (NCATS), 2014).
Out of some 360,000 compounds screened, about 17,000 (4.7%) were called active. The shares of active, inactive and inconclusive entries below differ from those in the screen. Rule as the data show it: active = activity change below about -50%; inconclusive = mostly about -30% to -49%; inactive = weaker than that.

Assay: qHTS for Inhibitors of Inflammasome Signaling: IL-1-beta AlphaLISA Primary Screen
Conditions: THP-1 LPS/ATP IL-1B secretion, 16 h; at 57.5 µM, active compounds read low
Outline: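 Secreted IL-1B measured by AlphaLISA bead assay after 16 h compound exposure of THP-1 cells; compounds (final up to 57.5 uM) added 1 h before LPS (250 ng/mL) and ATP (1.25 mM) stimulation; lower signal means less secretion.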
% is scaled to controls: 0 for no effect and ±100 for the full control effect.

Structure (SMILES)	activity change
Cc1nc2ccc([N+](=O)[O-])cc2c(=O)n1Cc1cccc(Br)c1	inconclusive: -32%
CCc1cccc(C)c1NC(=O)CN(C)Cc1ccc(Br)cc1	active: -56.7%
CCCCc1cc(=O)oc2cc(C)cc(OC(C)C(=O)NCc3ccncc3)c12 (stereo unspecified)	inconclusive: -39.6%
CCCCCCCCCCS(=O)(=O)N/N=C/c1ccc(O)cc1	inconclusive: -31.1%
CC1COc2ccccc2N1C(=O)c1ccccc1Cl (stereo unspecified)	inactive: 51.2%
CCc1cccc(NC(=O)c2cc(S(=O)(=O)N(C)C)ccc2N2CCCC2)c1	inconclusive: -31.3%
CCN(CC)C(=O)c1ccc(-c2nnc(Nc3ccc(C(=O)N(C)C)cc3)c3ccccc23)cc1	inconclusive: -40.5%
CC1CCC(NC(=O)CN2C(=O)c3ccccc3S2(=O)=O)CC1 (stereo unspecified)	inactive: -8.64%
CCOC(=O)CSCC(=O)Nc1cc(C)ccc1C	inactive: 24%
Cc1ccc(Cl)c(OCC(=O)Nc2cccnc2)c1	inconclusive: -43.9%
COc1ccccc1-c1coc2c(CN3CCCC(C)C3)c(O)ccc2c1=O (stereo unspecified)	inactive: -15.9%
CCOc1ccc(OCc2cccc(C(=O)N3CCCC3)c2)cc1	inconclusive: -30.6%
C=CCNC(=O)/C(C#N)=C/c1c(N2CC(C)OC(C)C2)nc2ccccn2c1=O (stereo unspecified)	inactive: -0.118%
N#Cc1ccc(Nc2nc(-c3ccccc3)c(C(=O)c3ccccc3)s2)cc1	active: -52.4%
COc1cc(NC(=O)c2ccccc2)c(OC)cc1NC(=O)CN1CCCCC1	inconclusive: -30.1%
CCC1CCCCN1CCN1C(=O)C2C(C(=O)Nc3cccc(OC)c3)C3C=CC2(O3)C1C(=O)NC1CCCCC1 (stereo unspecified)	inconclusive: -47%
CCCCNc1c(-c2cccc(-c3cc(C(C)=O)cs3)c2)nc2ccc(C)cn12	active: -103%
Cc1cccc(NC(=O)COC(=O)CC2CCCC2)c1C	inactive: -0.569%
O=C(O)c1ccc(-n2c(-c3ccc(Br)cc3)n[nH]c2=S)cc1	inactive: 26.4%
COc1ccc(NC(=O)Cn2nnc(-c3ccccc3NS(=O)(=O)c3ccccc3)n2)cc1	inactive: 7.37%
COCCCn1c(=O)/c(=C\c2ccc(OC(F)F)c(OC)c2)s/c1=C(/C#N)C(N)=O	inconclusive: -30.8%
COc1ccc2cc(C(N)=O)/c(=N\NC(=O)c3ccccc3)oc2c1	inconclusive: -45.6%

Structure (SMILES)	activity change
CN1CCN(C2=Nc3ccccc3Oc3ccc(Cl)cc32)CC1	inconclusive: -31.2%
Cc1nc2sc3c(NCc4ccco4)ncnc3c2c2c1COC(C)(C)C2	inconclusive: -46.7%
CCOc1cccc(CNc2ccc(O)cc2)c1OCc1ccc(Cl)cc1Cl	inconclusive: -31.1%
Cc1ccc(C(=O)NCC(=O)OC(C)C(=O)NC2CCCCC2C)cc1C (stereo unspecified)	inactive: 21.3%
CCOC(=O)CSCC(=O)Nc1ccc(S(=O)(=O)N2CCCCC2)cc1	inconclusive: -38.9%
CCc1cccc(OCCCn2ccnc2)c1	inconclusive: -37.4%
COC(=O)CS(=O)(=O)c1nnc([C@H](Cc2ccccc2)NC(=O)OC(C)(C)C)o1	active: -102%
CCOC(=O)C1=C(O)c2ccccc2C(=O)/C1=C\c1ccc(CC)cc1	inconclusive: -33.3%
CC(NC(=O)CN(C)CC(=O)Nc1ccc(Cl)cc1)c1ccc(F)cc1 (stereo unspecified)	inconclusive: -32.4%
COc1ccc(-c2nc(CN(CC3CCC(=O)N3)C(C)C)c(C)o2)c(C)c1C (stereo unspecified)	inconclusive: -48.1%
Cc1cc(C)cc(N(CC(=O)N/N=C/c2ccncc2)S(=O)(=O)c2ccccc2)c1	active: -54%
CC(C)n1c(=N)c(C(=O)NCCc2ccccc2)cc2c(=O)n3ccccc3nc21	active: -51.9%
Oc1ccc(C[C@H]2CNC(=S)N2CC2CCCN2C[C@H](Cc2ccccc2)N2C[C@H](Cc3ccc(O)cc3)N(CCc3ccccc3)C2=S)cc1 (stereo partly specified)	inconclusive: -47.5%
O=C(NC(=S)NCc1ccc(F)cc1)c1ccccc1	inactive: 0%
COC(=O)[C@]12CCCCC=C1N(Cc1cccc3ccccc13)C(=O)[C@H](CC(=O)NCc1ccccc1)C2	inconclusive: -38.7%
O=S(=O)(c1cccc(Cl)c1)N1CN(CC2CCCO2)c2nc3ccccc3nc21 (stereo unspecified)	inconclusive: -33.7%
CC1CCCN(CCCNS(=O)(=O)c2cc(Br)cc3c2N(C(=O)C2CC2)CC3)C1 (stereo unspecified)	inconclusive: -42%
COc1ccccc1S(=O)(=O)CC(O)COc1ccc(F)cc1Cl (stereo unspecified)	active: -61.5%
Cc1cc(O)c(C2(O)C(=O)Nc3cc(Br)ccc32)cc1C (stereo unspecified)	inconclusive: -32.1%
Cc1cc(C)c2[nH]c(C)c(CN3CCCCCC3)c(=O)c2c1	inactive: -3.21%
Cc1ccc(CCc2nnc(SCC(=O)Nc3ccccc3Cl)n2-c2ccccc2)o1	active: -63.6%
NC(CCc1ccccc1)c1csc(NC(=O)NCCc2ccccc2)n1 (stereo unspecified)	inconclusive: -47%

Structure (SMILES)	activity change
Cc1cc(Cl)c(OCCCn2cncn2)c(Br)c1	inconclusive: -44.5%
CCOC(=O)[C@]12CCCC=C1N(Cc1ccccc1)C(=O)[C@H](CC(=O)NCC1CCCCC1)C2	inconclusive: -37.4%
COc1ccc(OCCNc2cc(N3CCCCC3)ccc2[N+](=O)[O-])cc1	inconclusive: -37.2%
O=C(Nc1c(-c2ccc(Cl)cc2)[nH][nH]c1=O)c1ccccn1	inactive: -26.7%
Nc1c(C(=O)Nc2ccc(Br)cc2)sc2nc(N3CCOCC3)c3c(c12)CCCC3	inactive: 11.2%
CC1CCN(S(=O)(=O)c2nnc(NC(=O)c3cccc([N+](=O)[O-])c3)s2)CC1	inconclusive: -33.8%
CCc1ccccc1OC[C@@H](O)CN[C@H]1CCCc2ccccc21	inconclusive: -47%
CCN1CCN(C(c2ccccc2F)c2nnnn2Cc2ccc3c(c2)OCO3)CC1 (stereo unspecified)	inconclusive: -47.4%
Cc1ccc(Sc2ccc(NC(=O)CCl)cc2)cc1C	active: -79.4%
COc1cc2ncc(C(=O)c3ccccc3)c(N3CCN(Cc4ccccc4)CC3)c2cc1OC	active: -77.5%
COc1ccc(C(=O)NCC(=O)N/N=C/c2ccc([N+](=O)[O-])o2)cc1OC	active: -85.8%
CCN(CC)CCCNC(=O)C1CCN(c2ncnc3c2sc2cccc(F)c23)CC1	inconclusive: -39.5%
Cc1oc(-c2cc(Cl)cc(Cl)c2)cc1C(=O)NCCc1ccccc1	inconclusive: -38%
OCC1(CCOc2ccccc2)CCN(C2Cc3ccccc3C2)CC1	inconclusive: -49.9%
Cc1cc2nc(C(F)(F)F)cc(-c3cccs3)n2n1	inconclusive: -30.4%
O=C(NCc1nc2ccccc2[nH]1)C1=C[C@H](c2coc3ccccc3c2=O)C[C@H](OCc2ccc(CO)cc2)O1	inconclusive: -30.6%
O=[N+]([O-])c1cc(C(F)(F)F)ccc1NCCc1ccccn1	inconclusive: -43%
CCOc1cc(/C=C(\C#N)C(=O)Nc2cccc(C(=O)O)c2)ccc1OCc1ccccc1Cl	inactive: -2.83%
Cc1cccc(-n2c(C)cc(C(=O)NC3CCCCC3)c2C)c1	active: -90.1%
Cc1nn2c(c1-c1ccc(Cl)cc1)N=C(c1ccco1)CC2c1ccccc1 (stereo unspecified)	inconclusive: -36.4%
CCN(CC)S(=O)(=O)c1ccc(OC)c(NC(=O)c2ccc3c(c2)OCO3)c1	inconclusive: -46.2%
O=C(CCl)N1c2ccccc2Sc2ccc3ccccc3c21	active: -104%

Structure (SMILES)	activity change
CCOc1cc(NC(=S)NCCc2ccccc2)c(OCC)cc1NC(C)=O	inactive: 17.9%
O=c1[nH]cc(S(=O)(=O)N2CCN(c3ccccc3F)CC2)c(=O)[nH]1	inactive: -3.55%
CSc1ccc(C(=S)N2CCN(C(c3ccccc3)c3ccccc3)CC2)cc1	inconclusive: -32.7%
CC(=O)C1=C(O)C(=O)N(c2ccccn2)C1c1ccc(C)cc1 (stereo unspecified)	inactive: -4.79%
Cc1ccc(C(=O)OCC(=O)c2ccc(CC(=O)N3CCOCC3)s2)c(C)c1	inactive: 8.01%
Cc1ccc2c(c1)N=C(c1ccccc1)CC(C(Cl)Cl)=N2	inconclusive: -43.4%
Cn1ncc2cc(NC(N)=S)ccc21	inactive: 6.89%
CCN(CC)P(=O)(Nc1cccc(C(F)(F)F)c1)c1ccc(N(C)C)cc1NC(=O)c1ccco1 (stereo unspecified)	inconclusive: -42.8%
CCc1ccc(NC(=S)N2CCCC(C(F)(F)F)C2)cc1 (stereo unspecified)	inconclusive: -44.6%
O=[N+]([O-])c1cc(C(F)(F)F)ccc1NC1CCN(Cc2ccccc2)C1 (stereo unspecified)	inconclusive: -42.3%
COc1ccc(-c2ccccc2)cc1NC(=O)c1cccs1	inconclusive: -48.9%
O=C(NC1CCS(=O)(=O)C1)c1ccc(-c2ccc(Br)cc2)o1 (stereo unspecified)	inconclusive: -32.6%
N#CCn1cc(/C=N/NC(=O)c2cc3c(ccc4ccccc43)o2)c2ccccc21	inactive: -3.51%
CCCCc1cc(=O)oc2c(C)c(OCC(=O)N3CCCC3)ccc12	inconclusive: -30.8%
Cc1c(C(=O)NCc2c(F)cc(F)cc2F)oc2ccc(S(=O)(=O)N3CCOCC3)cc12	inconclusive: -39.1%
COc1ccccc1NC(=O)NCCN1CCN(c2cccc(Cl)c2)CC1	inconclusive: -40.5%
O=C(O)c1ccc(N=Cc2c(O)ccc3ccccc23)cc1	inactive: 8.46%
Cc1ccc(C)c(N2CCN(C(=O)c3csc(C)c3C)CC2)c1	inactive: -10.4%
Cc1cncn1CCc1nc2c3ccccc3nc(SCC(=O)Nc3cccc(Cl)c3)n2n1	active: -96.6%
Cc1ccc(NC(=O)CN2C(=O)NC(Cc3c[nH]c4ccccc34)C2=O)cc1S(=O)(=O)N1CCCCC1 (stereo unspecified)	inconclusive: -30.1%
